# US11884708B2, “Stapled peptide inhibitors of nemo as potential anti-inflammatory and anti-cancer drugs” (INSTITUT PASTEUR, priority 2015, dated 2024)
# Where two headings read alike, the source gives them in different places. At least one peptide structure holds a part that was inferred or is arguable (an end, a ring closure or a residue). For part of these data: For at least one compound, name, drawing or mass did not settle the structure. Some of these results come from one statement about several compounds together. Where a SMILES comes first, the peptide text is derived from it. Bridges are numbered along the chain shown (N, C = ends). [ ]: non-standard residue; d: D form. The star is where a group is joined. BODIPYFLEthylmaleimide = Cc1cc(C)n2c1C=C1C=CC(CCC(=O)NCCN3C(=O)CC(*)C3=O)=[N+]1[B-]2(F)F; R8 = C=CCCCCCC[C@@](C)(N)C(=O)O; S5 = C=CCCC[C@](C)(N)C(=O)O
# What was measured:
# [1] = CD spectroscopy, α-helical content; format: physicochemical; settings: 50 μM peptide, phosphate buffer pH 7.0, UBI in TFE taken as 100%
# CC2-LZ domain of NEMO = CC2-LZ domain of NEMO (Mus musculus, UniProt O88522); assay: Fluorescence anisotropy/polarization binding assay
# NF-κB pathway = NF-κB pathway (Mus musculus, UniProt O88522); assay: NF-κB inhibition assay, LPS-stimulated 70Z3-C3 lacZ reporter cells; format: cell-based
# From the text: The stable cell line of pre-B lymphocyte 70Z3-C3 cells expressing the lacZ reporter gene under the control of NF-κB was previously described. OCI-Ly3 (ABC-DLBCL, MALT1 dependent) and OCI-Ly7 (GCB-DLBCL). U2932 (ABC-DLBCL, MALT1 independent) were purchased from DSMZ (Deutsche Sammlung von Mikroorganismen and Zellkulturen) and HLY1 (ABC-DLBCL, MALT1 independent). Jurkat T-cells were obtained after transduction of lentiviruses containing a NF-κB reporter luciferase gene as previously described. All cell lines were grown in RPMI 1640 medium supplemented with 10% FBS, 10 μg/ml of streptomycin, 10 U/ml of penicillin and kept at 37° C., in a 5% CO2 humidified incubator. 0.05 mM of β-mercaptoethanol was added for 70Z3-C3. Primary and secondary antibodies were as following: polyclonal rabbit anti NF-κB p65, (sc-372, Santa Cruz Biotechnology, Inc) Alexa-488 coupled goat anti-rabbit IgG1 (Invitrogen) NF-κB inhibition assay was almost similar to those previously described in [1], except that luminescence data were monitored with a Centro XS^3, LB960 luminometer (Berthold technologies.), which is more sensitive. All experiments were performed in duplicates in 96-well plates. […] After 4 h incubation, cells were centrifuged 7 min at 400×g, at 4° C.
# [2] = Temperature-induced denaturation followed by CD; format: physicochemical; settings: 30 μM or 300 μM, ΔCp ≈ 0; for Tm: thermal denaturation by CD
# Description: Temperature-induced denaturation experiments were performed by measuring the ellipticity at 222 nm from 1° C. to 95° C. in 1° C. steps, at a rate of 1° C./min, with a 2 nm bandwidth. Thermodynamic parameters including the melting temperature (Tm) and the van't Hoff enthalpy change at the melting temperature (ΔHm) were determined by fitting the denaturation curves with the Gibbs-Helmholtz equation as described elsewhere, [10]. The heat capacity change (ΔCp) was assumed to be 0 as judged by ΔHm which yielded similar values within 10% at two independent peptide concentrations (30 and 300 μM). The ellipticity was converted to differential extinction coefficient Δε (M^−1·cm^−1) per residue taking into account the peptide concentration determined by amino acid analysis.
# Thermal stability of the peptides was also investigated by performing thermal denaturation profiles followed by CD (FIGS. 1 C and D and Table III). […] Indeed, the helicity of UBI-Aib (49%) is only 1.16-fold increased at 1° C. compared to UBI (42%), while its melting temperature (Tm=−8° C.) is 2.25 times higher than that of UBI (Tm=−18° C.).
# [3] = fixed peptide concentration 0.1 μM, read-out: Binding affinity (FP) at 0.1 μM
# [4] = fixed peptide concentration 10 μM, read-out: Binding affinity (FP) at 10 μM
# Sequence of CC2-LZ domain of NEMO (O88522 242-343 limits assumed): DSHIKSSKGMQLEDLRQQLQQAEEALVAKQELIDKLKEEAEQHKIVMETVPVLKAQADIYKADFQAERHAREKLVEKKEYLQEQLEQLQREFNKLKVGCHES
# Sequence of NF-κB pathway (O88522 whole entry): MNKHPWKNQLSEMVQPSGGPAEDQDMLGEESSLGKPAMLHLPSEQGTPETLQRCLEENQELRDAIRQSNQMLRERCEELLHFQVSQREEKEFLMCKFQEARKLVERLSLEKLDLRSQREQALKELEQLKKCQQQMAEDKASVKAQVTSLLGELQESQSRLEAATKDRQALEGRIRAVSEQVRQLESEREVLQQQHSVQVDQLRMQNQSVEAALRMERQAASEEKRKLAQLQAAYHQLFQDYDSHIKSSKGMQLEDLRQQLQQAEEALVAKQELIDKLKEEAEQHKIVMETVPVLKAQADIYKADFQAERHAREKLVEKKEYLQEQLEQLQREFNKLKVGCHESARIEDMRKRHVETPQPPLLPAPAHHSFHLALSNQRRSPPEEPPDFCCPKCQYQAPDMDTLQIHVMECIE
smiles,measurement,setting,value
"CC[C@H](C)[C@@H]1NC(=O)[C@](C)(NC(=O)[C@H](C)NC(=O)[C@H](CCC(N)=O)NC(=O)[C@H](C)NC(=O)[C@H](CCCCN)NC(=O)[C@H](CC(C)C)NC(=O)[C@H](CSC2CC(=O)N(CCNC(=O)CCC3=[N+]4C(=Cc5c(C)cc(C)n5[B-]4(F)F)C=C3)C2=O)NC(C)=O)CCCCCCC=CCCC[C@@](C)(C(=O)N[C@@H](C)C(=O)N[C@@H](CCC(=O)O)C(=O)N[C@@H](CCCNC(=N)N)C(=O)N[C@@H](Cc2c[nH]cn2)C(=O)N[C@@H](C)C(=O)N[C@@H](CCCNC(=N)N)C(=O)N[C@@H](CCC(=O)O)C(=O)N[C@@H](CCCCN)C(N)=O)NC(=O)[C@H](Cc2ccccc2)NC(=O)[C@H](CCCNC(=N)N)NC(=O)[C@H](C)NC(=O)[C@H](CCCCN)NC(=O)[C@H](Cc2ccc(O)cc2)NC1=O (single isomer, unassigned) [UBI-SAHN D306-Q313 (A)]",α-helical content at 1° C.,[1]; listed as UBI-SAHND306-Q313 (A),75-80%
"CC[C@H](C)[C@@H]1NC(=O)[C@](C)(NC(=O)[C@H](C)NC(=O)[C@H](CCC(N)=O)NC(=O)[C@H](C)NC(=O)[C@H](CCCCN)NC(=O)[C@H](CC(C)C)NC(=O)[C@H](CSC2CC(=O)N(CCNC(=O)CCC3=[N+]4C(=Cc5c(C)cc(C)n5[B-]4(F)F)C=C3)C2=O)NC(C)=O)CCCCCCC=CCCC[C@@](C)(C(=O)N[C@@H](C)C(=O)N[C@@H](CCC(=O)O)C(=O)N[C@@H](CCCNC(=N)N)C(=O)N[C@@H](Cc2c[nH]cn2)C(=O)N[C@@H](C)C(=O)N[C@@H](CCCNC(=N)N)C(=O)N[C@@H](CCC(=O)O)C(=O)N[C@@H](CCCCN)C(N)=O)NC(=O)[C@H](Cc2ccccc2)NC(=O)[C@H](CCCNC(=N)N)NC(=O)[C@H](C)NC(=O)[C@H](CCCCN)NC(=O)[C@H](Cc2ccc(O)cc2)NC1=O (single isomer, unassigned) [UBI-SAHN D306-Q313 (B)]",α-helical content at 1° C.,[1]; listed as UBI-SAHND306-Q313 (B),75-80%
CC[C@H](C)[C@H](NC(=O)[C@H](CCCCN)NC(=O)[C@@H](NC(=O)[C@H](CCC(N)=O)NC(=O)[C@@H](N)CCCNC(=N)N)[C@@H](C)CC)C(=O)N[C@@H](Cc1c[nH]c2ccccc12)C(=O)N[C@@H](Cc1ccccc1)C(=O)N[C@@H](CCC(N)=O)C(=O)N[C@@H](CC(N)=O)C(=O)N[C@@H](CCCNC(=N)N)C(=O)N[C@@H](CCCNC(=N)N)C(=O)N[C@@H](CCSC)C(=O)N[C@@H](CCCCN)C(=O)N[C@@H](Cc1c[nH]c2ccccc12)C(=O)N[C@@H](CCCCN)C(=O)N[C@@H](CCCCN)C(=O)N[C@@H](CC(C)C)C(=O)N[C@@H](CCCCN)C(=O)NC(C)(C)C(=O)N[C@@H](CCC(N)=O)C(=O)NC(C)(C)C(=O)N[C@@H](CC(=O)O)C(=O)N[C@H](C(=O)N[C@@H](Cc1ccc(O)cc1)C(=O)N[C@@H](CCCCN)C(=O)NC(C)(C)C(=O)N[C@@H](CCCNC(=N)N)C(=O)N[C@@H](Cc1ccccc1)C(=O)N[C@@H](CCC(N)=O)C(=O)NC(C)(C)C(=O)N[C@@H](CCC(=O)O)C(=O)N[C@@H](CCCNC(=N)N)C(=O)N[C@@H](Cc1c[nH]cn1)C(=O)NC(C)(C)C(=O)N[C@@H](CCCNC(=N)N)C(=O)N[C@@H](CCC(=O)O)C(=O)N[C@@H](CCCCN)C(=O)O)[C@@H](C)CC [A-UBI-AIB] (HELM PEPTIDE1{R.Q.I.K.I.W.F.Q.N.R.R.M.K.W.K.K.L.K.[Aib].Q.[Aib].D.I.Y.K.[Aib].R.F.Q.[Aib].E.R.H.[Aib].R.E.K}$$$$V2.0),Kd,CC2-LZ domain of NEMO; [3],5 µM
same,Kd,CC2-LZ domain of NEMO; [4],24 ± 3 µM
same,α-helical content at 1° C.,[1],43%
same,fold decrease of IC50 relative to the A-UBI parental peptide,NF-κB pathway,2.7 fold
same,IC50,"NF-κB pathway; 70Z3-C3 cells, 2 h peptide then LPS 4 h, N.I = No inhibition observed, read-out: IC 50 NF-κB inhibition",1.5 ± 0.5 µM
"CC[C@H](C)[C@H](NC(=O)[C@H](CC(=O)O)NC(=O)[C@H](C)NC(=O)[C@H](CCC(N)=O)NC(=O)[C@H](C)NC(=O)[C@H](CCCCN)NC(=O)[C@H](CC(C)C)NC(=O)[C@H](CCCNC(=N)N)NC(=O)[C@H](CCCNC(=N)N)NC(=O)[C@H](CCCNC(=N)N)NC(=O)[C@H](CCCNC(=N)N)NC(=O)[C@H](CCCNC(=N)N)NC(=O)[C@H](CCCNC(=N)N)NC(=O)[C@H](CCCNC(=N)N)NC(C)=O)C(=O)N[C@@H](Cc1ccc(O)cc1)C(=O)N[C@@H](CCCCN)C(=O)N[C@@H](C)C(=O)N[C@@H](CCCNC(=N)N)C(=O)N[C@@H](Cc1ccccc1)C(=O)N[C@@H](CCC(N)=O)C(=O)N[C@@H](C)C(=O)N[C@@H](CCC(=O)O)C(=O)N[C@@H](CCCNC(=N)N)C(=O)N[C@@H](Cc1c[nH]cn1)C(=O)N[C@@H](C)C(=O)N[C@@H](CCCNC(=N)N)C(=O)N[C@@H](CCC(=O)O)C(=O)N[C@@H](CCCCN)C(N)=O [R7, reference compound] (Ac-RRRRRRRLKAQADIYKARFQAERHAREK-NH2)",Kd,"CC2-LZ domain of NEMO; N-terminal CPP other than antennapedia, peptide concentration not given, read-out: KD of UBI with other CPPs",12 ± 3 µM
"CC[C@H](C)[C@H](NC(=O)[C@H](CC(=O)O)NC(=O)C(C)(C)NC(=O)[C@H](CCC(N)=O)NC(=O)C(C)(C)NC(=O)[C@H](CCCCN)NC(=O)[C@@H](N)CC(C)C)C(=O)N[C@@H](Cc1ccc(O)cc1)C(=O)N[C@@H](CCCCN)C(=O)NC(C)(C)C(=O)N[C@@H](CCCNC(=N)N)C(=O)N[C@@H](Cc1ccccc1)C(=O)N[C@@H](CCC(N)=O)C(=O)NC(C)(C)C(=O)N[C@@H](CCC(=O)O)C(=O)N[C@@H](CCCNC(=N)N)C(=O)N[C@@H](Cc1c[nH]cn1)C(=O)NC(C)(C)C(=O)N[C@@H](CCCNC(=N)N)C(=O)N[C@@H](CCC(=O)O)C(=O)N[C@@H](CCCCN)C(=O)O [UBI-AIB, LKAibQAibDIYKAibRFQAibERHAibREK] (HELM PEPTIDE1{L.K.[Aib].Q.[Aib].D.I.Y.K.[Aib].R.F.Q.[Aib].E.R.H.[Aib].R.E.K}$$$$V2.0)",Kd,CC2-LZ domain of NEMO; [3],> 10000 µM
same,Kd,CC2-LZ domain of NEMO; [4],> 10000 µM
same,α-helical content at 1° C.,[1],49%
same,α-helical content at 1° C.,[1]; listed as UBI-Aib,49%
same,ΔS,[2],−20 cal. mol^−1.K^−1
same,Tm,[2],(−8 ± 0.3) C°
same,Tm,[2]; listed as UBI-Aib,−8 C°
same,ΔH,[2]; van't Hoff enthalpy change at Tm,-5.37 kcal/mol
CC[C@H](C)[C@@H]1NC(=O)[C@H](CC(=O)O)NC(=O)[C@H](C)NC(=O)[C@H](CCC(N)=O)NC(=O)[C@](C)(NC(=O)[C@H](CCCCN)NC(=O)[C@H](CC(C)C)NC(=O)[C@H](CSC2CC(=O)N(CCNC(=O)CCC3=[N+]4C(=Cc5c(C)cc(C)n5[B-]4(F)F)C=C3)C2=O)NC(C)=O)CCCCCC/C=C/CCC[C@@](C)(C(=O)N[C@@H](CCCNC(=N)N)C(=O)N[C@@H](Cc2ccccc2)C(=O)N[C@@H](CCC(N)=O)C(=O)N[C@@H](C)C(=O)N[C@@H](CCC(=O)O)C(=O)N[C@@H](CCCNC(=N)N)C(=O)N[C@@H](Cc2c[nH]cn2)C(=O)N[C@@H](C)C(=O)N[C@@H](CCCNC(=N)N)C(=O)N[C@@H](CCC(=O)O)C(=O)N[C@@H](CCCCN)C(N)=O)NC(=O)[C@H](CCCCN)NC(=O)[C@H](Cc2ccc(O)cc2)NC1=O (stereo partly drawn) [UBI-SAHN A303-A310 (B)] (Ac-C(BODIPYFLEthylmaleimide)LK[R8]QADIYK[S5]RFQAERHAREK-NH2; staple (E) 4-11; N-terminus and C-terminus assumed),α-helical content at 1° C.,[1]; listed as UBI-SAHNA310-A310 (B),75-80%
CC[C@H](C)[C@@H]1NC(=O)[C@@](C)(NC(=O)[C@H](C)NC(=O)[C@H](CCC(N)=O)NC(=O)[C@H](C)NC(=O)[C@H](CCCCN)NC(=O)[C@H](CC(C)C)NC(=O)[C@H](CSC2CC(=O)N(CCNC(=O)CCC3=[N+]4C(=Cc5c(C)cc(C)n5[B-]4(F)F)C=C3)C2=O)NC(C)=O)CCCC=CCCC[C@@](C)(C(=O)N[C@@H](CCCNC(=N)N)C(=O)N[C@@H](Cc2ccccc2)C(=O)N[C@@H](CCC(N)=O)C(=O)N[C@@H](C)C(=O)N[C@@H](CCC(=O)O)C(=O)N[C@@H](CCCNC(=N)N)C(=O)N[C@@H](Cc2c[nH]cn2)C(=O)N[C@@H](C)C(=O)N[C@@H](CCCNC(=N)N)C(=O)N[C@@H](CCC(=O)O)C(=O)N[C@@H](CCCCN)C(N)=O)NC(=O)[C@H](CCCCN)NC(=O)[C@H](Cc2ccc(O)cc2)NC1=O (stereo partly drawn) [UBI-SAHN D306-A310] (Ac-C(BODIPYFLEthylmaleimide)LKAQA[S5]IYK[S5]RFQAERHAREK-NH2; staple 7-11),Kd,CC2-LZ domain of NEMO; [3],85 ± 15 µM
